Laboratory results published in PubChem BioAssay AID2782 (National Center for Advancing Translational Sciences (NCATS), 2010).
The shares of active, inactive and inconclusive entries below differ from those in the screen. Potencies of inconclusive entries are doubtful fits and often do not repeat. Active and inactive are the calls of the source. The call rests on the fitted dose curve; in most records, active means well fitted inhibition curve with a large enough effect in the polarisation, with a control signal flat (not every such curve was filed as active); inconclusive means small, poorly fitted or top-dose-only effect, or effect the other way, or a change in a side signal; inactive means no such curve, though single readings can be large or run the other way; the % refers to the polarisation.
Potency means the concentration at half of the fitted maximal effect; tags describe the fitted curve by direction and shape or compound fluorescence and quenching.

Assay: Confirmation of Inhibitors Targeting the Menin-MLL Interaction in MLL Related Leukemias: Competition With Texas Red Labeled MLL-derived Mutant Peptide
Conditions: fluorescence polarization, Texas Red MLL peptide displacement; series mostly up to 94.6 µM
In short: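 Hits from the primary screen were retested: compounds were incubated 1 hr at ambient with 200 nM menin, 50 nM Texas Red mutant peptide and 25 nM fluorescein wild-type peptide (Tris pH 7.5, BSA-supplemented buffer), then fluorescence polarization was read.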
With Cc1ccc(C2=NN(C(=O)c3ccccc3F)C(c3ccccc3F)C2)cc1 (stereo not given) the Potency was “inactive”.
For c1cc(CN2CCCNCCNCCCNCC2)ccc1CN1CCCNCCNCCCNCC1, the Potency was active: 22.4 µM.
For Cc1cnc(CNc2ccnc(-c3ccoc3)n2)cn1, the Potency was inconclusive: 158 µM [inhibitor, partial curve, poor fit].
For Cc1ccc(NC(=O)CN2C(=O)S/C(=C\c3ccc(C(=O)O)cc3)C2=O)cc1, the Potency was inconclusive: 71 µM [inhibitor, single point].
With N#Cc1ccc(Cl)cc1NC(=O)CNCc1cccs1 the Potency was “inactive”.
